The other results are listed elsewhere or left out. No stated cut-off is given here; in the data, active = 3.2 or more and inactive = the rest. Most of these values are background signal.
Tests used:
Experiment in all cases: enrichment score (SH2-bound / input frequency) (ratio); bacterial display of known human phosphotyrosine sites (pTyr-Var adds point mutants) read by sequencing; higher = stronger binding; tyrosines were phosphorylated by kinases first
Details in all cases: peptide library: Human pTyr
SHP2 C-SH2 domain E139D = biological target: SHP2 C-SH2 domain E139D
[1] = biological target: SHP2 C-SH2 domain wild-type
SHP2 N-SH2 domain L43F = biological target: SHP2 N-SH2 domain L43F
SHP2 N-SH2 domain T42A = biological target: SHP2 N-SH2 domain T42A
SHP2 N-SH2 domain T52S = biological target: SHP2 N-SH2 domain T52S
[2] = biological target: SHP2 N-SH2 domain wild-type
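Further: displayed peptides selected on beads carrying the immobilized SH2 domain, with library peptides lacking any tyrosine serving as negative controls.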

Binder	enrichment score (SHP2 C-SH2 domain E139D)	enrichment score [1]	enrichment score (SHP2 N-SH2 domain L43F)	enrichment score (SHP2 N-SH2 domain T42A)	enrichment score (SHP2 N-SH2 domain T52S)	enrichment score [2]
KEVHKSGYLSSERLI [EZRI_HUMAN_146]	inactive: 0.832	inactive: 0.871	inactive: 0.897	inactive: 0.888	inactive: 0.811	inactive: 1.06
DRTDDLVYLNVMELV [FAK2_HUMAN_881]	inactive: 1.1	inactive: 0.886	inactive: 1.21	inactive: 1.1	inactive: 1.16	inactive: 1.2
IASLNEGYARDFDPA [F16P1_HUMAN_216_YA]	inactive: 0.632	inactive: 0.495	inactive: 0.508	inactive: 0.531	inactive: 0.555	inactive: 0.5
IYSLNEGYARDFDPA [F16P1_HUMAN_216]	inactive: 0.58	inactive: 0.462	inactive: 0.51	inactive: 0.552	inactive: 0.635	inactive: 0.475
DSKNFDDYMKSLGVG [FABPH_HUMAN_20]	inactive: 1.73	inactive: 1.33	inactive: 1.18	inactive: 1.25	inactive: 1.3	inactive: 1.13
KAFDNPDYWNHSLPP [ERBB4_HUMAN_1242]	inactive: 0.823	inactive: 0.689	inactive: 0.963	inactive: 0.8	inactive: 0.648	inactive: 0.769
SSDEEYIYMNKVTIN [AF1L2_HUMAN_56]	inactive: 0.981	inactive: 1.01	inactive: 0.854	inactive: 0.836	inactive: 0.867	inactive: 1.36
ALETSRLYEDSGYSS [FBXO5_HUMAN_142]	inactive: 0.616	inactive: 0.49	inactive: 0.631	inactive: 0.588	inactive: 0.523	inactive: 0.518
TDTLQNDYFAIKQEV [ETS1_HUMAN_223]	inactive: 0.657	inactive: 0.858	inactive: 0.75	inactive: 0.831	inactive: 0.89	inactive: 0.834
MSSSYESYDEEEEDG [AFAP1_HUMAN_125]	inactive: 1.29	inactive: 1.28	inactive: 1.4	inactive: 1.19	inactive: 1.01	inactive: 1.73
EHPNVIRYFCTEKDR [ERN1_HUMAN_628]	inactive: 0.891	inactive: 0.806	inactive: 0.818	inactive: 0.846	inactive: 1.1	inactive: 1.02
TDDDKNIYLTLPPND [FCG2A_HUMAN_304]	inactive: 0.713	inactive: 0.774	inactive: 0.564	inactive: 0.872	inactive: 0.748	inactive: 0.648
KFDTQYPYGEKQDEF [ERP29_HUMAN_66]	inactive: 0.949	inactive: 0.858	inactive: 0.869	inactive: 0.642	inactive: 0.862	inactive: 0.88
NVTCTRIYEKVEGGG [FABP5_HUMAN_131]	inactive: 1.29	inactive: 1.06	inactive: 1.08	inactive: 1.47	inactive: 1.14	inactive: 1.56
YETADGGYMTLNPRA [FCG2A_HUMAN_288]	inactive: 0.654	inactive: 0.59	inactive: 0.527	inactive: 0.507	inactive: 0.568	inactive: 0.576
ALETSRLYEDSGASS [FBXO5_HUMAN_142_YA]	inactive: 0.659	inactive: 0.711	inactive: 0.573	inactive: 0.488	inactive: 0.568	inactive: 0.499
STLQHPDYLQEASTK [ERBB4_HUMAN_1258_YA]	inactive: 0.682	inactive: 0.644	inactive: 0.645	inactive: 0.542	inactive: 0.645	inactive: 0.772
TDPEALHYDAIDVEM [AFAP1_HUMAN_451_YA]	inactive: 1	inactive: 0.767	inactive: 1.13	inactive: 0.786	inactive: 0.849	inactive: 1.2

Binder	enrichment score (SHP2 C-SH2 domain E139D)	enrichment score [1]	enrichment score (SHP2 N-SH2 domain L43F)	enrichment score (SHP2 N-SH2 domain T42A)	enrichment score (SHP2 N-SH2 domain T52S)	enrichment score [2]
TPEKEVGYLEFTGPP [FAK2_HUMAN_849]	inactive: 0.846	inactive: 0.698	inactive: 0.532	inactive: 1.37	inactive: 0.975	inactive: 0.622
AIEDEDAYKASVTRL [FAK2_HUMAN_580_YA]	inactive: 0.898	inactive: 0.56	inactive: 0.605	inactive: 0.601	inactive: 0.501	inactive: 0.824
MSSSAESYDEEEEDG [AFAP1_HUMAN_125_YA]	inactive: 1.2	inactive: 0.882	inactive: 1.02	inactive: 0.884	inactive: 1.24	inactive: 1.37
STLQHPDYLQEYSTK [ERBB4_HUMAN_1258]	inactive: 0.595	inactive: 0.625	inactive: 0.838	inactive: 0.488	inactive: 0.666	inactive: 0.526
DSSKPAVYNYPEGAA [ESR1_HUMAN_52]	inactive: 0.608	inactive: 0.654	inactive: 0.709	inactive: 0.712	inactive: 0.748	inactive: 0.821
CKNVVPLYDLLLEML [ESR1_HUMAN_537]	inactive: 1.8	inactive: 1.68	inactive: 1.79	inactive: 1.77	inactive: 1.74	inactive: 2.07
AQIPEGDYLSYREFH [ERBIN_HUMAN_1104]	inactive: 0.617	inactive: 0.473	inactive: 0.564	inactive: 0.442	inactive: 0.546	inactive: 0.585
EAKILKQYDHPNIVK [FER_HUMAN_615]	inactive: 0.945	inactive: 0.917	inactive: 1.2	inactive: 0.934	inactive: 1.18	inactive: 1.12
SAPYGARYVGSMVAD [F16P1_HUMAN_245]	inactive: 0.452	inactive: 0.417	inactive: 0.512	inactive: 0.47	inactive: 0.406	inactive: 0.377
STRNQETYETLKHEK [FCERG_HUMAN_76]	inactive: 0.855	inactive: 0.779	inactive: 0.7	inactive: 1.09	inactive: 0.853	inactive: 0.895
EDSSTQRYSADPTVF [ERBB4_HUMAN_1128]	inactive: 0.578	inactive: 0.517	inactive: 0.517	inactive: 0.449	inactive: 0.512	inactive: 0.522
KFSHSGRYIMTRDYL [2ABB_HUMAN_295]	active: 3.46	active: 3.52	inactive: 3.11	inactive: 3.1	active: 3.63	active: 4.43
EENVRFIYEAWQGVE [F195B_HUMAN_41]	inactive: 0.944	inactive: 0.934	inactive: 0.998	inactive: 0.867	inactive: 1.03	inactive: 0.99
GELDEEGYMTPMRDK [ERBB4_HUMAN_1150]	inactive: 1.2	inactive: 0.851	inactive: 0.941	inactive: 0.81	inactive: 0.855	inactive: 0.872
AQIPEGDYLSAREFH [ERBIN_HUMAN_1104_YA]	inactive: 0.616	inactive: 0.602	inactive: 0.7	inactive: 0.447	inactive: 0.531	inactive: 0.697
GRDPPDPYVSLLLLP [ESYT1_HUMAN_1009]	inactive: 1.25	inactive: 0.838	inactive: 1.14	inactive: 1.17	inactive: 1.04	inactive: 0.863
VAGGIFLYPANKKSP [F16P1_HUMAN_265_YA]	inactive: 1.28	inactive: 1.42	inactive: 1.39	inactive: 1.45	inactive: 1.44	inactive: 1.97
IASLNEGYAKAFDAA [F16P2_HUMAN_216_YA]	inactive: 0.618	inactive: 0.612	inactive: 0.797	inactive: 0.539	inactive: 0.676	inactive: 0.671

From the supplement of paper PMC10369915
